For 42 sequences, binding signal results are on record in article PMC7819943, “Rice protein-binding microarrays: a tool to detect cis-acting elements near promoter regions in rice”.

Some of the results follow.

The target of the experiment is T1, OsWOX13 (Oryza sativa, UniProt Q5QMM3 1-267).
T1 sequence: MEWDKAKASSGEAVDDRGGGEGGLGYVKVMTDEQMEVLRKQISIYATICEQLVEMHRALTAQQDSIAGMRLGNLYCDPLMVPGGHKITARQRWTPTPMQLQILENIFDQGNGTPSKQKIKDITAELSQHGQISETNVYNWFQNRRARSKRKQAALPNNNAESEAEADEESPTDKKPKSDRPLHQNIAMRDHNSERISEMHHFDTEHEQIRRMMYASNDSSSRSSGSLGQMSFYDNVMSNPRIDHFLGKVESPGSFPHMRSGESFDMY
The experiment is described as follows: protein-binding microarray (RPBM); PBS, 2% BSA, 51.3 ng/ul salmon testes DNA, 50 uM zinc acetate, 200 nM TF, 25 C, 1 h; high values mean tight binding. The settings on record: protein: recombinant; tags: N-terminal polyhistidine and DsRed monomer fusion (pET32a); label: CyDye5-dUTP incorporated in the synthesized complementary strand; 3' TTTTT single-stranded linker to array surface; dsDNA, one strand shown. The procedure, abridged:
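Binding signal here means per-feature fluorescence intensity in arbitrary units. The values were read on an Axon 4000B scanner after a custom Agilent array, double-stranded by primer extension with Cy5-dUTP, was incubated with 200 nM protein at 25 °C for 1 h in PBS with 2% BSA, salmon testes DNA and 50 µM zinc acetate, then washed. The proteins were transcription factors with an N-terminal polyhistidine tag and DsRed, expressed in E. coli BL21-CodonPlus and purified on Ni–NTA.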
As for “CACTCAATCCCTCCTGGATTGATTCCCCTTGGGGATTAAACGGAGTCACCTAGTGCAG”, the binding signal is 4500 fluorescence intensity (a.u.).

With “AATGCTTAATTTAATTTGTGGCAAGAACCTGTGGTAGTGACGGAGTCACCTAGTGCAG”, the binding signal was 17400 fluorescence intensity (a.u.).

Turning to “AGATAATTGCATAAACAATCGTTTAGTTAGACTATAGAAACGGAGTCACCTAGTGCAG”, the binding signal is 14700 fluorescence intensity (a.u.).

Consider “AGCATTTCTATGATTTGTTACACTTTTACGAGTCTTATTTCGGAGTCACCTAGTGCAG”, for which the binding signal was 3500 fluorescence intensity (a.u.).

In the case of “AAATGATTGACTGCCTCAAGAGAATTTTACTCCTGTAGTGCGGAGTCACCTAGTGCAG”, the binding signal is 48800 fluorescence intensity (a.u.).

On to “TTAATGTTAATGAATCTAGATTTGTGAAACGGAGGGAGTACGGAGTCACCTAGTGCAG”, for which the binding signal is 14400 fluorescence intensity (a.u.).

Take “ATATTTAATACTTCTAATTAGTGTCTAAGACCCTGTTTAGCGGAGTCACCTAGTGCAG”: the binding signal was 4720 fluorescence intensity (a.u.).

For the sequence “GGAGGAGGTGGCGGCGGAGGGGTTGGTGGTGGAGGTGGTCCGGAGTCACCTAGTGCAG”, the binding signal was 7270 fluorescence intensity (a.u.).

Regarding “GGTAATTAACCGAGTGTGTGTACTTGTGCAAGATCCAGGCCGGAGTCACCTAGTGCAG”, the binding signal is 29700 fluorescence intensity (a.u.).

Take “ACTACTGATTTGAATCCTCGTGAGAGATGATGTGATTACACGGAGTCACCTAGTGCAG”: the binding signal was 19800 fluorescence intensity (a.u.).

As to “AAATTAAATTGCGAGCTAACAAAGGCCACTTCGTTAGCATCGGAGTCACCTAGTGCAG”, the binding signal was 15200 fluorescence intensity (a.u.).

For the sequence “AATTTAAATAATTTAACTTGCTAAGGGATATGACATTTGACGGAGTCACCTAGTGCAG”, the binding signal is 4480 fluorescence intensity (a.u.).

In the case of “CAAATTACAAATTACAGAAGAACGCCTCGCTACTAGCTAGCGGAGTCACCTAGTGCAG”, the binding signal was 21000 fluorescence intensity (a.u.).

Regarding “CCCATAATTCCATTTGACTGGTTCCTCTCAAGCATGTTGCCGGAGTCACCTAGTGCAG”, the binding signal was 20600 fluorescence intensity (a.u.).

In the case of “TGTACGAACATTATAATTAACTTATTACATACTCCCTCCGCGGAGTCACCTAGTGCAG”, the binding signal was 4530 fluorescence intensity (a.u.).

Consider “TAATTAAATTATAATCCACTAACTACTCATTCCACAACTGCGGAGTCACCTAGTGCAG”, for which the binding signal was 19500 fluorescence intensity (a.u.).

For the sequence “TAAATTGGTAACCTGTGAATGGCCAAACAACGCATACCCACGGAGTCACCTAGTGCAG”, the binding signal is 12900 fluorescence intensity (a.u.).

With “TATGTTACAATTAATTGATTTACTAGAAGTTTCAATAAAACGGAGTCACCTAGTGCAG”, the binding signal was 26600 fluorescence intensity (a.u.).

Turning to “CATGTTAATGTGATAGAAAAGGACTGAAGCTTGGATCCGACGGAGTCACCTAGTGCAG”, the binding signal is 7900 fluorescence intensity (a.u.).

“CGAGACGAATCTTCTGAGCCTAATTAGTCCATGATTAGGCCGGAGTCACCTAGTGCAG”: the binding signal was 5700 fluorescence intensity (a.u.).

Consider “GTTGATAGTTGTCATATGCACTCCTTGTTAAGCTCGCTATCGGAGTCACCTAGTGCAG”, for which the binding signal is 3190 fluorescence intensity (a.u.).

For “CCGCCGTTAGATTGAAGCAGAGCTACAGGCAGGAGGGGCTCGGAGTCACCTAGTGCAG”, the binding signal was 10600 fluorescence intensity (a.u.).

As for “GTCAATTTAGATTGCCGCGCTTACAATTAGTTCTCAGGAACGGAGTCACCTAGTGCAG”, the binding signal was 15100 fluorescence intensity (a.u.).

For “GAGTTTAATTAATTAATTTCTTAAAATTGATGTCATCACACGGAGTCACCTAGTGCAG”, the binding signal is 54800 fluorescence intensity (a.u.).

Regarding “GATGACATATATCAAACTTTGCAAAATTATAATGGTATGGCGGAGTCACCTAGTGCAG”, the binding signal is 5960 fluorescence intensity (a.u.).

With “ACCTAATTAATCCGTCATTAACAAATGTTTACCGTAACACCGGAGTCACCTAGTGCAG”, the binding signal was 38100 fluorescence intensity (a.u.).

Take “GGTTAAGTAATCAACCAGTGATAGTTGGTGTGTTTATGTACGGAGTCACCTAGTGCAG”: the binding signal is 3610 fluorescence intensity (a.u.).

As to “TTATACAGATTGCGTGTAAATTGCGAGACAAATCTTTTAACGGAGTCACCTAGTGCAG”, the binding signal is 3840 fluorescence intensity (a.u.).

Consider “CGTCCGTCATTGATTATGCCAGATCATAGCTGTACGTCGTCGGAGTCACCTAGTGCAG”, for which the binding signal was 21300 fluorescence intensity (a.u.).

With “CAGATAACTATTGTATGAATTGGCCATTAAAATGACTACACGGAGTCACCTAGTGCAG”, the binding signal was 3610 fluorescence intensity (a.u.).

On to “GTTTAATTAACGCCAAACTTTCCCCAAATTCTAAACTTTTCGGAGTCACCTAGTGCAG”, for which the binding signal was 27800 fluorescence intensity (a.u.).

For “CCGGCAAATCCTTAATTAATTAATTATGCATCATCTATTTCGGAGTCACCTAGTGCAG”, the binding signal is 32400 fluorescence intensity (a.u.).

For “CCATTAATTGGAACCAAAATTGTAGGTGGACAGGTATCCACGGAGTCACCTAGTGCAG”, the binding signal was 45000 fluorescence intensity (a.u.).

For the sequence “CCAAATATAAATTTATAGAAATGTAATAAGTTTATGAGATCGGAGTCACCTAGTGCAG”, the binding signal was 11600 fluorescence intensity (a.u.).

For the sequence “GTGCTCTTGATTGGCACATGAGCCTTGGCGGCGGTGACCTCGGAGTCACCTAGTGCAG”, the binding signal was 35600 fluorescence intensity (a.u.).

As for “GCTTCTTTGATTGTTGAGCGGGTTGTGTTCTTCATCACTTCGGAGTCACCTAGTGCAG”, the binding signal was 23700 fluorescence intensity (a.u.).

Turning to “ATGTAATTATCATTTATTTTATTATGACTTGATTCATCATCGGAGTCACCTAGTGCAG”, the binding signal was 49600 fluorescence intensity (a.u.).

Consider “ATGTGACCATAATTGGCTTTATGTATTTAGATGGTATGGACGGAGTCACCTAGTGCAG”, for which the binding signal was 27600 fluorescence intensity (a.u.).

“TTAATGATTGAATTGAACCTGTGAATGGAGAAGAACAACCCGGAGTCACCTAGTGCAG”: the binding signal was 30900 fluorescence intensity (a.u.).

Consider “TTTACTAATGAATACTTTAATTGTAGTGGAAATTCTATTGCGGAGTCACCTAGTGCAG”, for which the binding signal was 14700 fluorescence intensity (a.u.).

As to “ATGGAATTGATTAGAAGCCAGCCAGGCAGGGGAGGGTCGTCGGAGTCACCTAGTGCAG”, the binding signal was 33900 fluorescence intensity (a.u.).

As to “CGGTGATATTTATGTAAATTTATGGAGTAATATGTTTTATCGGAGTCACCTAGTGCAG”, the binding signal was 7480 fluorescence intensity (a.u.).
